The supplement of paper PMC10126150
Sequences with one replicate were seen in a single cluster, so their values are uncertain.
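Note: ATP exposure 15 min at 22 °C before imaging.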

Each sequence was assayed on ATP (assay: switch fluorescence ratio, 500 uM ATP over buffer (Cy3 cluster intensity, sum of 5 cycles each) (fold (ratio)); higher = stronger signal-on switching upon ATP binding; sequences stand for … in TCGTCGGCAGCGTCAGATGTGTATAAGAGACAGTTTTTTTTTTTTTTTTTTTTTTTTT…TC). Details: aptamer strand: ATP DNA aptamer (quencher-CACCTGGGGGAGTATTGCGGAGGAAGG + anchor), 100 nM annealed; ATP concentration: 500 uM; one replicate.
Method in brief: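 Per cluster, summed Cy3 intensity from the target cycles was divided by that from the buffer cycles to give the fluorescence ratio, then averaged per switch-domain sequence. Clusters outside 100-1000 RFU were excluded. The Cy3-labelled switching-strand clusters, on a modified Illumina MiSeq flow-cell, were annealed to 100 nM quencher-labelled ATP aptamer and imaged in selection buffer, then after 15 min with 500 uM ATP at 22 °C, for five cycles with NaOH stripping and re-annealing between them.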
With TGTGTTATCG the switch fluorescence ratio was 1.11. Sequence TGTGTTCGAC has a switch fluorescence ratio of 0.991. For TGTGTTTTTC, the switch fluorescence ratio was 1.04. TGTTACGGCT gave a switch fluorescence ratio of 1.03. In the case of TGTTACGGT, the switch fluorescence ratio is reported as 1.01. TGTTACTCCA gave a switch fluorescence ratio of 1.12. Sequence TGTTACTTAC has a switch fluorescence ratio of 1.26. TGTTAGAATG was tested, and the switch fluorescence ratio was 1.02. TGTTAGAGGT gave a switch fluorescence ratio of 1.01. TGTTAGGTAT showed a switch fluorescence ratio of 0.992. Work on TGTTATATAA yielded a switch fluorescence ratio of 1.01. Work on TGTTATGGTC yielded a switch fluorescence ratio of 1.42. For TGTTATTATG, the switch fluorescence ratio was 0.995. For TGTTCATGTG, the switch fluorescence ratio was 0.995. Work on TGTTCATTTA yielded a switch fluorescence ratio of 1. TGTTCCGGA was tested, and the switch fluorescence ratio was 0.989. TGTTCGAAAT was tested, and the switch fluorescence ratio was 1.02. Work on TGTTCTCGAT yielded a switch fluorescence ratio of 1.06. TGTTCTTACT gave a switch fluorescence ratio of 1.03. TGTTGAGGGC showed a switch fluorescence ratio of 0.955. TGTTGCCG gave a switch fluorescence ratio of 1.04. TGTTGCCTCT gave a switch fluorescence ratio of 1.01. Sequence TGTTGCTGCG has a switch fluorescence ratio of 1.65. In the case of TGTTGCTTCA, the switch fluorescence ratio is reported as 1. Work on TGTTGGAATG yielded a switch fluorescence ratio of 1.04. TGTTGGCC was tested, and the switch fluorescence ratio was 0.985. In the case of TGTTGTAACT, the switch fluorescence ratio is reported as 1.04. TGTTGTAAGA was tested, and the switch fluorescence ratio was 0.984. TGTTGTGGTT was tested, and the switch fluorescence ratio was 1. TGTTGTGTAC showed a switch fluorescence ratio of 1.03. Sequence TGTTGTGTGC has a switch fluorescence ratio of 1.07. Sequence TGTTTACTGG has a switch fluorescence ratio of 1.03. TGTTTAGGA was tested, and the switch fluorescence ratio was 1.04. In the case of TGTTTAGTTA, the switch fluorescence ratio is reported as 0.961. TGTTTCGGCC was tested, and the switch fluorescence ratio was 1.06. Work on TGTTTGAACA yielded a switch fluorescence ratio of 1.03. In the case of TGTTTGGGAT, the switch fluorescence ratio is reported as 1.01. With TGTTTGGTCG the switch fluorescence ratio was 0.944. Sequence TGTTTTGT has a switch fluorescence ratio of 1.02. TTAAAAATA was tested, and the switch fluorescence ratio was 1. Work on TTAAAAGAG yielded a switch fluorescence ratio of 1.03. Work on TTAAAATG yielded a switch fluorescence ratio of 0.964. In the case of TTAAAGAGAT, the switch fluorescence ratio is reported as 0.947. For TTAAAGCCTG, the switch fluorescence ratio was 1.08. Work on TTAAAGGAG yielded a switch fluorescence ratio of 0.972. TTAAAGTAA was tested, and the switch fluorescence ratio was 1.02. Work on TTAAAGTCAG yielded a switch fluorescence ratio of 0.996. TTAAATCGTC gave a switch fluorescence ratio of 0.96. For TTAAATGCAG, the switch fluorescence ratio was 1.03. For TTAAATGGGC, the switch fluorescence ratio was 0.985. TTAAATGTAA showed a switch fluorescence ratio of 0.986. TTAAATTTAG showed a switch fluorescence ratio of 0.988. TTAACATGCT gave a switch fluorescence ratio of 1.04. TTAACGCTCC showed a switch fluorescence ratio of 1.07. TTAACGCTGA showed a switch fluorescence ratio of 1.06. TTAACGGCTT was tested, and the switch fluorescence ratio was 1.05. For TTAACGTTGA, the switch fluorescence ratio was 0.939. Work on TTAAGAAAAT yielded a switch fluorescence ratio of 0.993. With TTAAGACACG the switch fluorescence ratio was 1.02. In the case of TTAAGACC, the switch fluorescence ratio is reported as 1.01. For TTAAGAGCCG, the switch fluorescence ratio was 0.978. In the case of TTAAGAGCTC, the switch fluorescence ratio is reported as 0.994. In the case of TTAAGGGAGA, the switch fluorescence ratio is reported as 0.982. TTAAGTAGC showed a switch fluorescence ratio of 1.02. Work on TTAAGTGGCG yielded a switch fluorescence ratio of 0.908. For TTAAGTGTTG, the switch fluorescence ratio was 1. Work on TTAATCACAG yielded a switch fluorescence ratio of 0.984. TTAATCAGA showed a switch fluorescence ratio of 0.994. TTAATCAGCG was tested, and the switch fluorescence ratio was 1.01. TTAATCCCCG showed a switch fluorescence ratio of 0.964. For TTAATCGATT, the switch fluorescence ratio was 1. With TTAATCGGTC the switch fluorescence ratio was 1.01. In the case of TTAATGACGT, the switch fluorescence ratio is reported as 1.03. Work on TTAATGGG yielded a switch fluorescence ratio of 1. TTAATGGGAG showed a switch fluorescence ratio of 0.978. For TTAATGGGCT, the switch fluorescence ratio was 1.04. TTAATTAGGG showed a switch fluorescence ratio of 0.969. TTAATTCGGC showed a switch fluorescence ratio of 0.977. In the case of TTAATTTTAC, the switch fluorescence ratio is reported as 1.02. Sequence TTACAATGCG has a switch fluorescence ratio of 1. In the case of TTACACGGTA, the switch fluorescence ratio is reported as 1.12. TTACACTTTA gave a switch fluorescence ratio of 1.08. In the case of TTACAGTGTA, the switch fluorescence ratio is reported as 0.969. Sequence TTACATCAA has a switch fluorescence ratio of 1.07. With TTACATGCTT the switch fluorescence ratio was 0.974. TTACCAAATT was tested, and the switch fluorescence ratio was 1.12. TTACCAGACC gave a switch fluorescence ratio of 1.12. TTACCCCGAG showed a switch fluorescence ratio of 1.3. TTACCCCGTA showed a switch fluorescence ratio of 0.989. TTACCGCCAG gave a switch fluorescence ratio of 1.08. Work on TTACCGGGA yielded a switch fluorescence ratio of 1.04. In the case of TTACCGGGCG, the switch fluorescence ratio is reported as 1.01. Work on TTACCGGGTA yielded a switch fluorescence ratio of 1.02. TTACCTGTAC was tested, and the switch fluorescence ratio was 1.07. Sequence TTACGAAGTA has a switch fluorescence ratio of 1.05. For TTACGATGAC, the switch fluorescence ratio was 1.45. In the case of TTACGCAAGG, the switch fluorescence ratio is reported as 1.64. TTACGCCCGT showed a switch fluorescence ratio of 1.06. Sequence TTACGCTAGA has a switch fluorescence ratio of 1.07. With TTACGGCGCC the switch fluorescence ratio was 1.02. Work on TTACGTCAGT yielded a switch fluorescence ratio of 1.03. For TTACGTCTCT, the switch fluorescence ratio was 1.02. Work on TTACTATTAA yielded a switch fluorescence ratio of 1.06. TTACTCAA gave a switch fluorescence ratio of 1.05. Work on TTACTCAAGG yielded a switch fluorescence ratio of 1.04. TTACTCCCCC was tested, and the switch fluorescence ratio was 1.35. TTACTCCCTT was tested, and the switch fluorescence ratio was 1.36. For TTACTCGTTC, the switch fluorescence ratio was 1.07. TTACTCTGGT was tested, and the switch fluorescence ratio was 1.1. Work on TTACTCTTC yielded a switch fluorescence ratio of 1.02. TTACTGCGAT gave a switch fluorescence ratio of 1.1. TTACTTATAG gave a switch fluorescence ratio of 0.99. TTACTTGACG showed a switch fluorescence ratio of 1.12. Sequence TTACTTTCGG has a switch fluorescence ratio of 0.988. TTAGAAAGCT gave a switch fluorescence ratio of 0.995. TTAGAAGATG showed a switch fluorescence ratio of 0.946. Work on TTAGAAGTG yielded a switch fluorescence ratio of 0.947. Sequence TTAGAATG has a switch fluorescence ratio of 1.03. Sequence TTAGACTCAC has a switch fluorescence ratio of 1.1. TTAGACTTTA was tested, and the switch fluorescence ratio was 1.02. Work on TTAGAGACCT yielded a switch fluorescence ratio of 1.37. TTAGAGTTTG was tested, and the switch fluorescence ratio was 0.967. TTAGATGCGC gave a switch fluorescence ratio of 0.971. In the case of TTAGATGTAG, the switch fluorescence ratio is reported as 1.01. Sequence TTAGATTATT has a switch fluorescence ratio of 1.01. TTAGCAATGT gave a switch fluorescence ratio of 2.35. Sequence TTAGCAGGG has a switch fluorescence ratio of 0.994. TTAGCGCCCG gave a switch fluorescence ratio of 0.994. TTAGCGCTGT gave a switch fluorescence ratio of 1.03. TTAGCTAAGT was tested, and the switch fluorescence ratio was 0.987. In the case of TTAGCTATGC, the switch fluorescence ratio is reported as 1.1. For TTAGGACCGT, the switch fluorescence ratio was 1.02. TTAGGAGAT showed a switch fluorescence ratio of 1.01. Sequence TTAGGCCTAA has a switch fluorescence ratio of 0.966. TTAGGCGGAC gave a switch fluorescence ratio of 1.1. Work on TTAGGCGGC yielded a switch fluorescence ratio of 1. TTAGGGCCGG showed a switch fluorescence ratio of 0.96. Work on TTAGGGCGG yielded a switch fluorescence ratio of 0.966. With TTAGGGGACT the switch fluorescence ratio was 1.24. For TTAGGTGA, the switch fluorescence ratio was 1.05. In the case of TTAGGTGCCG, the switch fluorescence ratio is reported as 1. TTAGTAAGGG showed a switch fluorescence ratio of 1. TTAGTAGCTG gave a switch fluorescence ratio of 0.866. Sequence TTAGTAGTCT has a switch fluorescence ratio of 0.918. For TTAGTCCATA, the switch fluorescence ratio was 0.992. TTAGTCCCA gave a switch fluorescence ratio of 0.967. In the case of TTAGTCCCTT, the switch fluorescence ratio is reported as 0.989. Work on TTAGTGGTAA yielded a switch fluorescence ratio of 1.01. TTAGTTAAGG showed a switch fluorescence ratio of 0.981. Work on TTAGTTAGGA yielded a switch fluorescence ratio of 1.01. TTAGTTAGTC gave a switch fluorescence ratio of 1.27. TTAGTTCCTA gave a switch fluorescence ratio of 1.02. Work on TTAGTTCTGT yielded a switch fluorescence ratio of 0.991. TTAGTTGTTC showed a switch fluorescence ratio of 0.968. Work on TTAGTTTACG yielded a switch fluorescence ratio of 1.02. For TTAGTTTGGT, the switch fluorescence ratio was 1.02. Work on TTATAAAATA yielded a switch fluorescence ratio of 1.03. With TTATAATTT the switch fluorescence ratio was 1.01. TTATACCCAA showed a switch fluorescence ratio of 1.1. TTATACCCAG showed a switch fluorescence ratio of 1.01. Sequence TTATACTTTG has a switch fluorescence ratio of 0.919. TTATAGAGGG was tested, and the switch fluorescence ratio was 1.05. TTATCAGCTG showed a switch fluorescence ratio of 1.01. In the case of TTATCAGGCA, the switch fluorescence ratio is reported as 1.02. TTATCATCGA gave a switch fluorescence ratio of 1.01. TTATCCCATA showed a switch fluorescence ratio of 1.04. For TTATCCCCTG, the switch fluorescence ratio was 1.06. Work on TTATCCGATA yielded a switch fluorescence ratio of 1.04. For TTATCGAAAA, the switch fluorescence ratio was 0.988. For TTATCGCTA, the switch fluorescence ratio was 1.05. In the case of TTATCGTAAT, the switch fluorescence ratio is reported as 0.988. TTATCTACAT showed a switch fluorescence ratio of 1.05. Work on TTATGAACCG yielded a switch fluorescence ratio of 1.01. Work on TTATGAACCT yielded a switch fluorescence ratio of 1.77. In the case of TTATGACTCG, the switch fluorescence ratio is reported as 0.933. With TTATGATAAC the switch fluorescence ratio was 1.04. Sequence TTATGATTGA has a switch fluorescence ratio of 1.01. TTATGGAGGG gave a switch fluorescence ratio of 0.989. TTATGGATCA was tested, and the switch fluorescence ratio was 1.04. For TTATGGGGCC, the switch fluorescence ratio was 1.03. TTATGTCAG showed a switch fluorescence ratio of 0.983. With TTATGTGCTA the switch fluorescence ratio was 0.923. TTATTAGGTG showed a switch fluorescence ratio of 1.2. With TTATTGAAGG the switch fluorescence ratio was 0.957. For TTATTGACAG, the switch fluorescence ratio was 1.04. With TTATTGTTTG the switch fluorescence ratio was 1.02. TTATTTAACA gave a switch fluorescence ratio of 1.01. TTATTTGAGG was tested, and the switch fluorescence ratio was 0.973. TTATTTTCCG showed a switch fluorescence ratio of 0.97. Sequence TTATTTTGTC has a switch fluorescence ratio of 1.01. TTCAAAAATA gave a switch fluorescence ratio of 0.993. TTCAACACGA gave a switch fluorescence ratio of 1.02. Sequence TTCAAGAGGG has a switch fluorescence ratio of 0.972. For TTCAAGATGA, the switch fluorescence ratio was 0.978. Work on TTCAAGGA yielded a switch fluorescence ratio of 1.02. TTCAAGTCGA showed a switch fluorescence ratio of 1.01. Work on TTCAATAATG yielded a switch fluorescence ratio of 1.02. With TTCAATACT the switch fluorescence ratio was 3.27. TTCAATAGAG was tested, and the switch fluorescence ratio was 0.987. TTCACAAATC gave a switch fluorescence ratio of 1.06. TTCACAGCTA was tested, and the switch fluorescence ratio was 1.21.
